The supplement of paper PMC11417369
± gives the standard deviation of the averaged measurements. The list shows a part of the results.

Test system: PfAP2-LT AP2 domain (GST-tagged)
Assay: gcPBM binding intensity (ln(normalized median fluorescence intensity)); higher = stronger DNA binding
How it was run: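 Binding intensity values are the highest Masliner-normalised natural-log median intensity among replicate spots of either probe orientation. The binding step lasted 1 h in 1× PBS with 1% milk, 0.2 mg/ml BSA, 0.5% salmon testes DNA and 0.03% Triton X-100, using GST-tagged P. falciparum DNA-binding domains expressed in E. coli on an Agilent 4 × 180k array of primer-extended double-stranded 36-bp intergenic genomic probes plus negative controls. Alexa488 anti-GST antibody and a 488 nm scan detected bound protein.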

Q: With “TTAAAATGATTGTTACTTTTTTTTCCGTTTTCTTAA [CACACA_negctrl_site1195]” as the sequence, how does the “gcPBM binding intensity (ln)” value read?
A: 8.46 ± 0.6

Q: How did the “gcPBM binding intensity (ln)” value turn out when “ATAAATAGTATTATATGTACACATAATATTTATAAA [XGTACX_site4751]” was run?
A: 8.87 ± 0.57

Q: “TTTCTCTCTTATAAAATACACACGAACAATCATATT [CACACA_site509]” was tested. Which “gcPBM binding intensity (ln)” value did it give?
A: 8.77 ± 0.4

Q: How did the “gcPBM binding intensity (ln)” value turn out when “AAAAATGGTGTTAACACACACATATATATATATATA [CACACA_site571]” was run?
A: 9.94 ± 0.2

Q: With “TTAATATAGGGAAAAAAAAGAAAATCGAAAATGTGT [CACACA_negctrl_site834]” as the sequence, how does the “gcPBM binding intensity (ln)” value read?
A: 8.72 ± 0.42

Q: “TATAATTATGATGATAGTACGTATGAGTTCAAAACA [XGTACX_site4211]” was tested. Which “gcPBM binding intensity (ln)” value did it give?
A: 8.77 ± 0.46

Q: With “CACATTTTTTAAATATTTTTCTACTCCATAATGTTT [CACACA_negctrl_site557]” as the sequence, how does the “gcPBM binding intensity (ln)” value read?
A: 8.66 ± 0.45

Q: How did the “gcPBM binding intensity (ln)” value turn out when “ATAGTTACACGCCAAAAAAAAAAAAAAAAAAAAAAA [CACACA_negctrl_site1133]” was run?
A: 8.21 ± 0.42

Q: For “TAACTTCAAAAATCTTGTACATAAATATATAAAACA [XGTACX_site8574]”, which “gcPBM binding intensity (ln)” value is on record?
A: 8.47 ± 0.48

Q: For “AATTTTGTCCTATGTTGTACTATTTTGCTCTATTTT [XGTACX_site7139]”, which “gcPBM binding intensity (ln)” value is on record?
A: 9.21 ± 0.35

Q: “TTTCCGGTAATATGGAAATATATGTGGGTTTTTTTT [CACACA_negctrl_site1536]” was tested. Which “gcPBM binding intensity (ln)” value did it give?
A: 8.62 ± 0.37

Q: Which “gcPBM binding intensity (ln)” value does the source give for “ACTATTTTAAAAATATGTACATACGTTGTAATTTAA [XGTACX_site7999]” here?
A: 8.69 ± 0.4

Q: “CGAAGGATAAACATACGTACATATATGTGTATAATA [XGTACX_site779]” was tested. Which “gcPBM binding intensity (ln)” value did it give?
A: 9.04 ± 0.55

Q: “CTGTATTTATTTTTCTGTACCAAATCACCCCTTGTA [XGTACX_site395]” was tested. Which “gcPBM binding intensity (ln)” value did it give?
A: 8.81 ± 0.54

Q: With “TATATTTATAAATGAACACACACGCAATTTGAATCG [CACACA_site3370]” as the sequence, how does the “gcPBM binding intensity (ln)” value read?
A: 9.16 ± 0.29

Q: “GATGTATAAAATAATACATGCATGTCCTACATATAT [TGCATGCA_site155]” was tested. Which “gcPBM binding intensity (ln)” value did it give?
A: 9.35 ± 0.48

Q: With “TACGTTTTATGACACACACACAAAAAAAAAAAAAAA [CACACA_site7764]” as the sequence, how does the “gcPBM binding intensity (ln)” value read?
A: 9.05 ± 0.54

Q: For “TTTCTTTTTCGATATACACACTGTATGTGTCTAAAA [CACACA_site6054]”, which “gcPBM binding intensity (ln)” value is on record?
A: 8.96 ± 0.57

Q: “CATCACCTTTTTAAATGTACGCATAATACCAAAAAA [XGTACX_site1587]” was tested. Which “gcPBM binding intensity (ln)” value did it give?
A: 8.6 ± 0.48

Q: With “GTAGGTTACAAAATGTGAGAGAAGCAAATATAGAAA [CACACA_negctrl_site1819]” as the sequence, how does the “gcPBM binding intensity (ln)” value read?
A: 8.88 ± 0.5

Q: With “TTTTGTTTTTAGTTTATACACACCATATTAATATAA [CACACA_site3102]” as the sequence, how does the “gcPBM binding intensity (ln)” value read?
A: 8.75 ± 0.42

Q: Which “gcPBM binding intensity (ln)” value does the source give for “TTGTATTAAAATCAAGTGCATATAATTTAAGTTCAT [GTGCAC_site9495]” here?
A: 8.6 ± 0.36

Q: With “CTTTGGTTATAACACACATGCACACGTAAATAAATA [TGCATGCA_site976]” as the sequence, how does the “gcPBM binding intensity (ln)” value read?
A: 9.29 ± 0.42

Q: “TATCATATATTATAGCGTACTTATTTATTTATTTAT [XGTACX_site1676]” was tested. Which “gcPBM binding intensity (ln)” value did it give?
A: 8.88 ± 0.54

Q: “AAAAAAAAAAAAAAAAGTACATGAAAAAAAGAAGAA [XGTACX_site8384]” was tested. Which “gcPBM binding intensity (ln)” value did it give?
A: 8.7 ± 0.66

Q: With “TATAATAGTTCATAGGTGCAATATAATAAATTTATA [GTGCAC_site9573]” as the sequence, how does the “gcPBM binding intensity (ln)” value read?
A: 8.65 ± 0.49

Q: Which “gcPBM binding intensity (ln)” value does the source give for “ATATAAGTACCTATAACACACATATATTATAAGTAT [CACACA_site7281]” here?
A: 9.06 ± 0.46

Q: For “TAGAATAAATTAATTACACACGGAATTATATATATA [CACACA_site1616]”, which “gcPBM binding intensity (ln)” value is on record?
A: 8.78 ± 0.42

Q: Which “gcPBM binding intensity (ln)” value does the source give for “TATAGCAAAATATTCACACAAACTATTAATAAAAGT [CACACA_site5795]” here?
A: 8.96 ± 0.4

Q: Which “gcPBM binding intensity (ln)” value does the source give for “AATGGTTATAATATATGTACATATAAATATACTGAA [XGTACX_site8533]” here?
A: 8.84 ± 0.38

Q: For “TATAAAATAAATAACAAAAAAAATAAAATAAAAATA [TGCATGCA_negctrl_site297]”, which “gcPBM binding intensity (ln)” value is on record?
A: 8.6 ± 0.7

Q: For “ATAAAACTTATTTAACGTACATATTTTATATACCTT [XGTACX_site5353]”, which “gcPBM binding intensity (ln)” value is on record?
A: 8.79 ± 0.48

Q: “TTTTTTTTTTAGTATGAACACACATATATATTATAA [CACACA_site8957]” was tested. Which “gcPBM binding intensity (ln)” value did it give?
A: 8.62 ± 0.47

Q: How did the “gcPBM binding intensity (ln)” value turn out when “AAAAAATACATCAAAAGAAACATATATATATATATA [GTGCAC_negctrl_site719]” was run?
A: 9.885 ± 0.035

Q: Which “gcPBM binding intensity (ln)” value does the source give for “AAGAAGAAACAAAACACACACAGTCTTCTTTTCTAT [CACACA_site3088]” here?
A: 9.54 ± 0.42

Q: How did the “gcPBM binding intensity (ln)” value turn out when “TACAGAATTGTATATAGTACATAAAACAATATATAT [XGTACX_site7275]” was run?
A: 8.88 ± 0.4

Q: With “GTATATGAATAATATTTTATGGTAATTTTTTTTTTT [XGTACX_negctrl_site512]” as the sequence, how does the “gcPBM binding intensity (ln)” value read?
A: 8.34 ± 0.5

Q: How did the “gcPBM binding intensity (ln)” value turn out when “GGTGGTAAAAAACCTGCATGTCGAAATATTAAATAC [TGCATGCA_site33]” was run?
A: 8.86 ± 0.5

Q: Which “gcPBM binding intensity (ln)” value does the source give for “AAAAAAAAAAAAAAGAGTACTCATATAAAAATATAA [XGTACX_site6551]” here?
A: 8.39 ± 0.49

Q: Which “gcPBM binding intensity (ln)” value does the source give for “TTTTTATAAAAAATTTACACTATATGACAGAAGTAA [XGTACX_negctrl_site481]” here?
A: 8.28 ± 0.33

Q: With “ATAAATTAAAAACACACACACATCTGGATACCCCTA [CACACA_site5780]” as the sequence, how does the “gcPBM binding intensity (ln)” value read?
A: 9.77 ± 0.13

Q: With “AATGAAAAGTAAAATACACACACATAATATAATTTA [CACACA_site8608]” as the sequence, how does the “gcPBM binding intensity (ln)” value read?
A: 9.41 ± 0.38

Q: Which “gcPBM binding intensity (ln)” value does the source give for “TGTGTAAAAATCATGGGTACACATTTTGATACCAAT [XGTACX_site1779]” here?
A: 9.02 ± 0.41

Q: “AAACTTGACGAACACACACACACATATATAAAAAAA [CACACA_site6494]” was tested. Which “gcPBM binding intensity (ln)” value did it give?
A: 10.1 ± 0.4
